Some of the results follow. Further columns of the screen follow, without active or inactive calls.
Experiments:
Experiment in all cases: Primary Screen for Target Class Profiling of Small Molecule Inhibitors of Methyltransferases
[1] = biological target: Glycine N-methyltransferase (Homo sapiens) (UniProt Q14749); settings: purified enzyme, MTase-Glo SAH luminescence; measured here: GNMT inhibition; at 40 µM; stronger effect = lower value
Summary of the method: (§1)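 Each enzyme was assayed with SAM and its substrate. SAH formation detected by MTase-Glo luminescence; single-point 40 uM screen[…].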

[2] = biological target: Guanidinoacetate N-methyltransferase (Homo sapiens) (UniProt Q14353); settings: purified enzyme, MTase-Glo SAH luminescence; measured here: GAMT inhibition; at 40 µM; stronger effect = lower value
Summary of the method: as §1

[3] = biological target: Histamine N-methyltransferase (Homo sapiens) (UniProt P50135); settings: purified enzyme, MTase-Glo SAH luminescence; measured here: HNMT inhibition; at 40 µM; stronger effect = lower value
Summary of the method: as §1

[4] = biological target: Nicotinamide N-methyltransferase (Homo sapiens) (UniProt P40261); settings: purified enzyme, MTase-Glo SAH luminescence; measured here: NNMT inhibition; at 40 µM; stronger effect = lower value
Summary of the method: as §1

[5] = biological target: Phenylethanolamine N-methyltransferase (Homo sapiens) (UniProt P11086); settings: purified enzyme, MTase-Glo SAH luminescence; measured here: PNMT inhibition; at 40 µM; stronger effect = lower value
Summary of the method: as §1
% is scaled to controls: 0 for no effect and ±100 for the full control effect.

Row | SMILES | activity change, negative = inhibition [1] | activity change, negative = inhibition [2] | activity change, negative = inhibition [3] | activity change, negative = inhibition [4] | activity change, negative = inhibition [5]
1 | CCN1C(=O)c2c(C(=O)NCc3cccc(F)c3)ncn2CC1(C)C(=O)NC1CCCC1 (stereo not given) | -1.07% | 2.83% | 6.77% | 4.16% | 2.65%
2 | CCCn1c(=O)c2ccccc2n2c(SCc3ccccc3)nnc12 | -17.9% | 3.62% | 4.33% | -11.7% | 1.91%
3 | CCC(C)NC(=O)c1ccc2c(=O)n(CCC(C)C)c3n[nH]c(=O)n3c2c1 (stereo not given) | 2.63% | 0% | 9.35% | 11.5% | 1.13%
4 | COCCN(C)Cc1cn(Cc2ccccc2)nc1-c1ccc2c(c1)OCO2 | -6.66% | -11.2% | -4.92% | -17.6% | -14%
5 | COc1cccc2c(NCc3ccccc3)nc(-n3c(N)nc4ccccc43)nc12 | -1.79% | -6.82% | -2.76% | -32.8% | -9.46%
6 | CC1(C(=O)NC2CCCCC2)Cn2c(cc3occc32)C(=O)N1C1CCCCC1 (stereo not given) | 5.91% | 1.45% | 8.21% | 9.26% | 2.88%
7 | CCc1nc(CN2CCC(N3CCCC(C(=O)NCc4ccccn4)C3)CC2)no1 (stereo not given) | -1.5% | 2.17% | 0.554% | 2.18% | -10.5%
8 | Cc1nc2c(-c3cnc(N)nc3)nc(N3CCOCC3)nc2n1C(C)C | -10.7% | 3.22% | -11.7% | -18.8% | -2.25%
9 | Nc1nccc(Oc2ccc(NC(=O)c3c[nH]cc(-c4ccc(F)cc4)c3=O)cc2F)c1Cl | -11.2% | -21.6% | -56.6% | -79% | -18.3%
10 | O=C(NC1CCCCC1)c1ccc2c(=O)n(Cc3ccccc3)c3nn(Cc4ccccc4)c(=O)n3c2c1 | -1.48% | -0.363% | 1.62% | -7.52% | -3.71%
11 | CC1=C(CO)C2(C)CCCC(C)(C)C2C(O)C1O (stereo not given) | 1.1% | -4.7% | 8.34% | -16.1% | 5.19%
12 | Cc1cnc(CCNC(=O)c2n[nH]c(=O)c3ccccc23)n1C1CCCCC1 | -10.3% | -3.15% | -74.1% | -11.4% | -0.743%
13 | CC1CCCCC1NC(=O)C1(C)Cn2c(cc3sccc32)C(=O)N1CCCc1ccccc1 (stereo not given) | -0.841% | 0% | 1.27% | -2.65% | 1.6%
14 | CN1CCC(N2CCC[C@H]2c2nc(-c3ccc(OC4CCCCC4)nc3)no2)CC1 | -6.32% | -2.47% | -23.8% | -9.95% | 2.75%
15 | CCC(C)NC(=O)c1ccc2c(=O)nc3c(-c4cccc(C)c4)n[nH]n3c2c1 (stereo not given) | -11.4% | 2.82% | -3.7% | -1.02% | -8.62%
16 | O=C(NCCc1ccc(F)cc1)c1cc(-c2ccccc2)c2nncn2n1 | -9.51% | -4.64% | -6.67% | -8.17% | -3.43%
17 | CC(C)CCNC(=O)c1cc2n(n1)CC(C)(C(=O)NC1CCCCCC1)N(C)C2=O (stereo not given) | 0.917% | 0% | 2.97% | -8.19% | -3.1%
18 | CCC(c1cnn(C)c1)n1ccnc1-c1cc(F)c(OC)c(Cl)c1 (stereo not given) | -1.92% | -0.352% | -0.956% | -6.14% | 11.7%
19 | Cc1ccc(C2Nc3c(ccc(C(=O)O)c3C)C3C=CCC32)cc1 (stereo not given) | -31.4% | 0% | 3.85% | 2.4% | -14.9%
20 | O=C(N1CCCCCC1)C1(CCO)CCN(c2ncccn2)C1 (stereo not given) | -3.65% | -6.08% | -3.74% | -7.1% | 3.31%
21 | O=C(Cn1nc2nc(Nc3ccc(F)cc3)ccn2c1=O)Nc1cc(F)ccc1F | -4.29% | -4.83% | -0.506% | -19.1% | -7.66%
22 | COc1ccccc1CNC(=O)C1c2c(n(C)c3ccccc23)SCC(=O)N1c1ccc(Cl)cc1 (stereo not given) | 11.7% | 0% | 3.35% | 0.451% | 7.62%
23 | COc1ccc(OC)c2c1cc1n2CC(C)(C(=O)NC2CCCC2)N(Cc2ccco2)C1=O (stereo not given) | -2.35% | 0% | 1.01% | 3.3% | -0.72%
24 | CC1CC(C)CN(S(=O)(=O)c2ccc3c(c2)oc(=O)n3CC(=O)NCCc2ccccc2)C1 (stereo not given) | -8.01% | -0.204% | -7.41% | -2.13% | -26.8%
25 | Cc1cc(=O)oc2cc(CN(C)CC(C)N3CCOCC3)ccc12 (stereo not given) | -6.76% | -6.76% | -10.1% | -12.7% | -9.11%
26 | CCC(C)C1NC(=O)C(Cc2ccccc2)NC(=O)C(CCCCCC(=O)C(O)CO)NC(=O)C2CCCCN2C1=O (stereo not given) | 2.57% | -2.73% | 4.56% | -12% | 2.5%
27 | COc1ccc(N2C(=O)c3cc4occc4n3CC2(C)C(=O)NC2CCCC(C)C2C)cc1Cl (stereo not given) | -1.63% | 0% | 5.75% | 3.24% | -0.605%
28 | COCCOCc1nc(C2CCCN2C(=O)c2ccccn2)no1 (stereo not given) | -1.27% | 1.86% | 1.61% | -0.812% | -2.71%
29 | COc1ccc(NC(=O)Cn2nc3n(Cc4ccc(C)cc4)c(=O)c4ccccc4n3c2=O)cc1 | 4.79% | 6.5% | 12% | 3.76% | 3.12%
30 | CC1(C(=O)NC2CCCCC2)Cn2nc(-c3cccs3)cc2C(=O)N1Cc1ccc(F)cc1 (stereo not given) | 2.36% | 0% | 8.8% | 1.73% | 1.81%

— PubChem BioAssay AID1745853 (National Center for Advancing Translational Sciences (NCATS), 2022)
